The list shows a part of the results. Most values come without repeats; read them as rough.

Experimental findings from the supplement of paper PMC10986608 are described below.

The test system of the test is Candida albicans DPL-15. Put plainly: growth (OD600) after compound treatment (apparently relative to screen median) (relative growth (fraction; screen median 1.02)); DPL-15 is a caspofungin-resistant clinical isolate; higher = more fungal growth (less antifungal activity). The conditions noted are these: 25 µM; RPMI 1640; 48 h; 30 °C.
Regarding `C=CC[C@H]1CC2=C(OC1(C)C)C(C(=O)c1ccccc1)=C(O)C(CC=C)(CC=C)C2=O`, the growth stood at 0.716.

`CC(C)(C)c1ccc2c(c1)C1(Cc3occc(=O)c3OS(C)(=O)=O)CCCCC1=N2` (configuration not stated): the growth came out at 1.04.

Take `CC(=O)Nc1ccc([C@@H]2C=C[C@@H](OC(C)=O)[C@@H](COC(C)=O)O2)cc1`: the growth worked out at 0.961.

In the case of `COc1ccc(C(=O)COC(=O)c2c(N)cccc2F)cc1`, the growth is 1.1.

As to `O=C1NC(c2ccccc2)c2c1nn(-c1ccc(OC(F)(F)F)cc1)c2-c1ccccc1` (configuration not stated), the growth came out at 1.03.

Take `COc1ccccc1N1C(=O)c2[nH]nc(CC(C)C)c2C1c1cccc(C(F)(F)F)c1` (configuration not stated): the growth was 1.09.

With `COc1cc2c(c(OC)c1)COC(=O)C2`, the growth came to 0.968.

For `CC1=C[C@H]2c3c(c(O)c(O)c4oc5ccc(C(F)(F)F)cc5c(=O)c34)[C@H](c3cc(O)c(O)c4oc5ccc(C(F)(F)F)cc5c(=O)c34)[C@H]2C(C)(C)C1`, the growth is active: 0.0939.

For the molecule `Cc1ccc(S(=O)(=O)N/N=C/c2cccc(C(=O)ON3C(=O)CCC3=O)c2)cc1`, the growth came out at 1.05.

Consider `Cc1nn(C)c(C)c1Nc1cc(O)cc(O)c1C(=O)N1CC2CC2C1` (configuration not stated), for which the growth is 1.05.

As for `CC1=NCC(C)(C)NC2=C1C(c1ccc3c(c1)OCO3)NC2=O` (configuration not stated), the growth was determined as 0.976.

On to `COC(=O)C1=C(C)NC(=O)NC1c1cccs1` (configuration not stated), for which the growth was 1.15.

As to `CCCCCCCc1cc(C(F)(F)F)cc(CCCCCCC)n1`, the growth is 1.16.

Regarding `CC(C)(C)NS(=O)(=O)OCCCCCOCc1ccccc1`, the growth is 1.09.

For `Cc1cc2c(nc1C)CCCN2C[C@@H]1CO1`, the growth turned out to be 1.04.

As to `COC(=O)C1=C(C)N(Cc2ccc(C(F)(F)F)cc2)C(NCCCOC(C)C)=NC1c1ccccc1` (configuration not stated), the growth was determined as 0.89.

Consider `COc1cc(O)c(C(C)=O)c(OC)c1`, for which the growth came to 1.12.

Consider `CC(C)C1=NCCNC2=C1C(c1cccc(C(F)(F)F)c1)N(c1ccccc1)C2=O` (configuration not stated), for which the growth is 1.03.

Turning to `CC(=O)C1=C(C)N(Cc2ccc(Br)cc2)C(=S)NC1c1cccc(Br)c1` (configuration not stated), the growth came out at 0.919.

With `CC(C)C1=NCCNC2=C1C(c1cccc(C(F)(F)F)c1)NC2=O` (configuration not stated), the growth was found to be 1.06.

With `COC(=O)N[C@@H]1[C@@H](C)[C@H](OC)[C@]23C=CC=C[C@H]2[C@]13CCN(C(C)C)C(C)C`, the growth came to 1.17.

As for `Cc1ccc(S(=O)(=O)N/N=C/c2cccc(C(=O)NCC(CC(=O)ON3C(=O)CCC3=O)c3ccccc3)c2)cc1` (configuration not stated), the growth is 1.04.

For `CS(=O)(=O)Oc1c(C[C@@]23CCCCC2=Nc2cc(F)cc(F)c23)occc1=O`, the growth is 1.13.

Regarding `C[C@@H]1C=C(I)[C@@]2(CCCO)c3c(oc4ccccc34)-c3ccccc3[C@@H]12`, the growth turned out to be 0.75.

As to `COc1cc(OC)c2c(c1)N(C)[C@]1(c3ccc(Br)cc3)C(=O)[C@@]2(O)[C@H](c2ccccc2)[C@H]1c1ccccc1`, the growth was found to be 1.06.

Turning to `C[C@@H]1/C=C/CC(=O)OCCCCC(=O)N[C@@H]1c1ccccc1`, the growth was 1.04.

Regarding `COc1ccc(N2C(=O)c3[nH]nc(CCC(C)C)c3C2c2ccc(F)cc2)cc1` (configuration not stated), the growth came to 1.02.

On to `CC(=O)OC[C@H]1O[C@H](c2ccc(Br)cc2)C=C[C@@H]1OC(C)=O`, for which the growth came to 0.861.

Turning to `COC(=O)C1=Cc2ccc(F)cc2[C@H](c2ccc(F)cc2)[C@H]1C(=O)OC`, the growth amounted to 1.11.

As to `Cc1nn(C)c(C)c1Nc1cc(O)cc(O)c1C(=O)N1CCC(F)(F)C1`, the growth came out at 1.06.

With `COC(=O)Cc1cc(O)cc(O)c1C(=O)OC`, the growth came out at 1.11.

In the case of `C=C(C)CC[C@H](Cc1c(O)cc(O)c2c1O[C@H](c1ccc(O)cc1)CC2=O)C(=C)C`, the growth amounted to 0.902.

As to `CCOc1ccccc1C(=O)/C=C/c1ccc2ccccc2c1`, the growth amounted to 0.987.

As for `CCn1cc(CCC(=O)NCc2ccc(O)c(OC)c2)nn1`, the growth turned out to be 1.02.

As to `C[C@H]1[C@@H]2C[C@@]3(O[C@H](C4CCNCC4)N=C3C[C@@H]1c1ccccc1)N(Cc1cccs1)C2=O`, the growth is 1.01.

For the molecule `Cc1ccc(S(=O)(=O)n2c3c(c4ccccc42)[C@H](/C=C/c2ccccc2)[C@@H]([C@H](O)CBr)OC3)cc1`, the growth is 0.879.

Take `CNC(=O)c1nnc(C(=O)OC)c2c1c1ccccc1n2S(=O)(=O)c1ccc(C)cc1`: the growth was determined as 0.913.

For the molecule `COc1ccc(N2C(=O)c3[nH]nc(CC(C)C)c3C2c2c(Cl)cccc2Cl)cn1` (configuration not stated), the growth is 0.939.

For `COC(=O)C1=C(C)N(Cc2ccccc2C(F)(F)F)C(=S)NC1c1cccc(Br)c1` (configuration not stated), the growth came to 1.

Take `CC1=NCCNC2=C1C(c1cccc(C(F)(F)F)c1)N(Cc1ccccc1)C2=O` (configuration not stated): the growth was 0.996.

Consider `CC(C)CCN(C(=O)OC(C)(C)C)S(=O)(=O)NC(C)(C)C`, for which the growth stood at 1.1.

In the case of `COc1ccc(S(=O)(=O)N2CCCc3nc(-c4ccccc4)ccc32)cc1`, the growth was determined as 0.894.

As for `CCOC(=O)C1=CN(CCNC(=O)OC(C)(C)C)C(=O)NC1c1ccccc1` (configuration not stated), the growth stood at 1.07.

With `CC(C)Cc1n[nH]c2c1[C@@H](c1ccc(F)cc1)N(c1ccc3ncnn3c1)C2=O`, the growth came out at 0.972.

For `O=C(/C=C/c1ccccc1Br)c1ccccc1O`, the growth is 0.914.

For `COC(=O)[C@]1([C@H]2CCC(=O)O2)CC(=O)c2c(ccc(Br)c2O)O1`, the growth turned out to be 1.21.

In the case of `CC(C)C1=NCC(C)(C)NC2=C1C(c1ccc(Br)cc1)N(Cc1ccccc1)C2=O` (configuration not stated), the growth worked out at 0.988.

`CC1(C)CN=C(c2ccccc2)C2=C(N1)C(=O)NC2c1ccccc1` (configuration not stated): the growth came out at 1.06.

As for `O=C1C[C@@H](c2ccccc2)[C@]2(c3ccc(Br)cc3)Oc3cc(F)cc(F)c3[C@]12O`, the growth was 1.22.

As to `COc1ccc(-c2cnnc(CCCn3ccnc3-c3ccccc3)n2)cc1`, the growth was 0.863.

For `O=C(/C=C/c1ccc(OCc2ccccc2)cc1OCc1ccccc1)c1ccc(O)cc1O`, the growth was found to be 1.14.

`CCOC(=O)c1cc(-c2c(Br)cc(OC)cc2OC)on1`: the growth was found to be 1.11.

Turning to `COc1ccc(-c2ccc3c(n2)CCCN3S(=O)(=O)c2ccc(C#N)cc2)cc1`, the growth turned out to be 0.909.

On to `O=c1c2ccc(O)c(O)c2oc2cc(O)cc(O)c12`, for which the growth was 1.04.

`COC(=O)C1=C(C)N(Cc2ccccc2Cl)C(=S)NC1c1cccc(Br)c1` (configuration not stated): the growth was 0.897.

For `CC1=NCCN(C)C2=C1C(c1ccc3c(c1)OCO3)NC2=O` (configuration not stated), the growth came to 1.02.

Take `CC(C)Cc1n[nH]c2c1C(c1cccc(C(F)(F)F)c1)N(c1ccc(F)cc1)C2=O` (configuration not stated): the growth was 1.12.

With `COc1ccc(N2C(=O)c3[nH]nc(CC(C)C)c3C2c2ccc(C)s2)cc1` (configuration not stated), the growth stood at 1.1.

In the case of `Cc1ccc(C2NC(=O)c3c2c(C)nn3-c2ccccc2)cc1` (configuration not stated), the growth is 1.16.

`N#CCN1Cc2cc(-c3ccccc3)c(-c3ccccc3)nc2C1`: the growth stood at 0.808.

As for `CC(=O)N[C@@H]1[C@@H](C)[C@H](OCc2ccccc2)[C@]23C=CC=C[C@H]2[C@]13CCN(C(C)C)C(C)C`, the growth came out at 1.31.

In the case of `COCc1nn(Cc2ccccc2)c2c1C(c1ccccc1)NC2=O` (configuration not stated), the growth turned out to be 0.927.

As for `COCc1n[nH]c2c1C(c1ccccc1)N(Cc1ccccc1)C2=O` (configuration not stated), the growth turned out to be 0.947.

Consider `C=C(C)[C@@H]1[C@H](c2cc(OC)c(O)c3oc4c(C)cccc4c(=O)c23)C=C(C)C[C@H]1c1cc(OC)c(O)c2oc3c(C)cccc3c(=O)c12`, for which the growth was determined as 1.01.

Turning to `COc1ccc(N2C(=O)c3c(c(C)nn3C)C2c2ccc(Br)cc2)cc1` (configuration not stated), the growth turned out to be 0.908.

For `COc1ccc([C@]23Oc4cc(OC)cc(OC)c4[C@@]2(O)c2nc(-c4ccc(C)cc4)[nH]c(=O)c2[C@@H]3c2ccccc2)cc1`, the growth turned out to be 0.959.

Consider `CC(C)(O)Cn1nc2cc1COC[C@H](c1ccccc1)NC(=O)CC1(CCCCC1)CNC(=O)c1cccc-2c1`, for which the growth came out at 1.09.

With `COC(=O)C1=C(C)N(Cc2cccc(C(F)(F)F)c2)C(NCc2ccc3c(c2)OCO3)=NC1c1ccc(Cl)cc1` (configuration not stated), the growth is 0.986.

In the case of `Cc1cc(C)cc(-n2nc(CC(C)C)c3c2C(=O)NC3c2cccc(C(F)(F)F)c2)c1` (configuration not stated), the growth stood at 0.925.

On to `CC(C)(C)[Si](C)(C)O[C@H]1C=C2COS(=O)O[C@H]2[C@H]2O[C@H]21` (some centres not stated), for which the growth is 0.922.

With `COc1ccc(C(=O)Cl)cc1I`, the growth was found to be 0.955.

Turning to `COc1ccc(CCn2ccc(Nc3cc(C(=O)N4Cc5ccccc5C4)c(O)cc3O)n2)cc1`, the growth was found to be 0.94.

Regarding `Cc1ccc(C2NC(=O)c3nn(-c4ccc(OC(F)(F)F)cc4)c(-c4ccccc4)c32)cc1` (configuration not stated), the growth was found to be 1.02.

As to `COC[C@H]1O[C@H](c2ccccc2)C=C[C@@H]1OCC#Cc1cc([N+](=O)[O-])ccc1N`, the growth is 0.888.

`O=c1c(O)c(-c2ccc(O)cc2O)oc2cc(O)cc(O)c12`: the growth is 0.954.

For `C#CCN(CCOC)C(=O)c1nnc2c3cc(C)ccc3n(S(=O)(=O)c3ccc(OC)cc3)c2n1`, the growth was 1.08.

In the case of `COc1ccc(OC)c2c(=O)n(C)c(C)cc12`, the growth turned out to be 1.15.

As for `CCCCC1=CC2=C(OC(C)=O)C(=O)C(C)(OC(=O)CC)C(=O)C2=CO1` (configuration not stated), the growth was found to be 0.933.

In the case of `CC(C)Cc1n[nH]c2c1C(c1ccc(F)cc1)N(c1ccc3c(c1)OCO3)C2=O` (configuration not stated), the growth is 0.924.

In the case of `COc1ccc([C@@]23Oc4cc(OC)cc(OC)c4[C@]2(O)c2nc(-c4cccc(OC)c4)[nH]c(=O)c2[C@H]3c2ccccc2)cc1`, the growth came to 0.966.

As to `CCOc1ccc(C2NC(=O)N3CCC=CC3=C2C(C)=O)c(F)c1F` (configuration not stated), the growth stood at 0.864.

On to `CCC[C@]12Cc3cc(OC)c(OC)cc3[C@H](O1)c1c(c3ccccc3n(C)c1=O)O2`, for which the growth came out at 0.912.
